The target of this experiment is human Cav2.2 (Homo sapiens, UniProt Q00975). In words: In vitro assessment of calcium channel activity using FLIPR (Ca2+ influx in IMR32 cells). Type of experiment: cell-based. The following applies: IMR32 cells endogenously expressing human Cav2.2; Calcium 4 dye, 60 minute pre-incubation, 2 μM nifedipine, depolarized with 80 mM KCl; average of at least two runs unless marked *. The method, then:
The IMR32 cells were maintained in MEM media containing 10% (v/v) FBS, 1% (v/v) antibiotic/antimitotic, 1% (v/v) sodium pyruvate and 1% (v/v) MEM NEAA. Following dissociation in 0.05% (v/v) trypsin/EDTA, cells were seeded into black 1×96-well plates (Corning Cellbind) at a density of 1−1.2×10^5 cells/well and incubated in the maintenance media above for 48 hours at 37° C. Immediately prior to performing the assay the media was removed and cells were loaded for 1.5 hours with 1× Calcium 4 dye prepared in HBSS (137 mM NaCl, 5.4 mM KCl, 0.25 mM Na2HPO4, 0.44 mM KH2PO4, 1.3 mM CaCl2, 1 mM MgSO4, 4.2 mM NaHCO3) containing HEPES pH 7.4 at room temperature. After dye loading and a subsequent 60 minute pre-incubation with compounds (full log dilutions from 10 μM to 0.1 nM) in the presence of 1.3 mM CaCl2 and 2 μM nifedipine to block endogenous L-type channels, the external Ca^2+ concentration was increased to 5 mM CaCl2 and the cells concomitantly depolarized with 80 mM KCl to assay channel activity. To determine the IC50 values, the percent inhibition of the compound at each concentration was determined relative to the activity in the absence of inhibitor, and data was fitted using non-linear regression sigmoidal dose response curve analysis with GraphPad Prism®. Unless otherwise indicated (*), the reported values are average values from at least two runs (i.e., n≧2).
As to `O=S(=O)(c1cc(Cl)cc(Cl)c1)N1CCN2C[C@@H](Nc3cccc(C(F)(F)F)n3)C[C@H]2C1` [Example 15, (7S,8aS)-2-[(3,5-dichlorophenyl)sulfonyl]-N-[6-(trifluoromethyl)pyridin-2-yl]octahydropyrrolo[1,2-a]pyrazin-7-amine], the half-inhibitory concentration (IC50) (usually the concentration needed to halve the response being measured) stood at 1860 nM.

Turning to `CC(C)(C)c1cccc(S(=O)(=O)N2CCN3C[C@H](Oc4cnc(C5CC5)cn4)C[C@H]3C2)c1` [Example 53, (7R,8aS)-2-[(3-tert-butylphenyl)sulfonyl]-7-[(5-cyclopropylpyrazin-2-yl)-oxy]octahydropyrrolo[1,2-a]pyrazine], the IC50 amounted to 180 nM.

In the case of `Cc1ccc(F)c(S(=O)(=O)N2CCN3C[C@H](Oc4cnc(C5CC5)cn4)C[C@H]3C2)c1` [Example 121, (7R,8aS)-7-[(5-cyclopropylpyrazin-2-yl)oxy]-2-[(2-fluoro-5-methylphenyl)-sulfonyl]octahydropyrrolo[1,2-a]pyrazine], the concentration for half-maximal inhibition (IC50) is 1550 nM.

For the compound `Cc1ccc(S(=O)(=O)N2CCN3C[C@H](Oc4cnc(C5CC5)cn4)C[C@H]3C2)s1` [Example 72, (7R,8aS)-7-[(5-cyclopropylpyrazin-2-yl)oxy]-2-[(5-methyl-2-thienyl)-sulfonyl]octahydropyrrolo[1,2-a]pyrazine], the IC50 is 3760 nM.

Consider `O=S(=O)(c1ccc(Cl)s1)N1CCN2C[C@H](Oc3cnc(C4CC4)cn3)C[C@H]2C1` [Example 141, (7R,8aS)-2-[(5-chloro-2-thienyl)sulfonyl]-7-[(5-cyclopropylpyrazin-2-yl)-oxy]octahydropyrrolo[1,2-a]pyrazine], for which the half-maximal inhibitory concentration (IC50) turned out to be 1990 nM.

As to `O=S(=O)(c1cccc(C(F)(F)F)c1)N1CCN2C[C@H](OCc3ccc(OC(F)(F)F)cc3)C[C@H]2C1` [Example 98, (7R,8aS)-7-{[4-(trifluoromethoxy)benzyl]oxy}-2-{[3-(trifluoromethyl)-phenyl]sulfonyl}octahydropyrrolo[1,2-a]pyrazine], the half-maximal inhibitory concentration (IC50) is 1040 nM.

Turning to `O=C1[C@H](Oc2cnc(C3CC3)cn2)C[C@H]2CN(S(=O)(=O)c3cccc(C(F)(F)F)c3)CCN12` [Example 211, (7R,8aS)-7-[(5-cyclopropylpyrazin-2-yl)oxy]-2-{[3-(trifluoromethyl)-phenyl]sulfonyl}hexahydropyrrolo[1,2-a]pyrazin-6(2H)-one], the IC50 was determined as 1560 nM.

As to `O=S(=O)(c1cccc(OC(F)(F)F)c1)N1CCN2C[C@H](Oc3cnc(C4CC4)cn3)C[C@H]2C1` [Example 34, (7R,8aS)-7-[(5-cyclopropylpyrazin-2-yl)oxy]-2-{[3-(trifluoromethoxy)-phenyl]sulfonyl}octahydropyrrolo[1,2-a]pyrazine], the IC50 turned out to be 580 nM.

As to `N#Cc1ccc(S(=O)(=O)N2CCN3C[C@H](Oc4cnc(C5CC5)cn4)C[C@H]3C2)cc1` [Example 153, 4-{[(7R,8aS)-7-[(5-cyclopropylpyrazin-2-yl)oxy]hexahydropyrrolo[1,2-a]-pyrazin-2(1H)-yl]sulfonyl}benzonitrile], the IC50 worked out at 5500 nM.

In the case of `O=S(=O)(c1ccc2c(c1)CCCC2)N1CCN2C[C@H](Oc3cnc(C4CC4)cn3)C[C@H]2C1` [Example 169, (7R,8aS)-7-[(5-cyclopropylpyrazin-2-yl)oxy]-2-(5,6,7,8-tetrahydronaphthalen-2-ylsulfonyl)octahydropyrrolo[1,2-a]pyrazine], the half-inhibitory concentration (IC50) amounted to 1140 nM.

As for `C=C(C)c1cnc(O[C@@H]2C[C@H]3CN(S(=O)(=O)c4cccc(C(F)(F)F)n4)CCN3C2)cn1` [Example 204, (7R,8aS)-7-{[5-(prop-1-en-2-yl)pyrazin-2-yl]oxy}-2-{[6-(trifluoromethyl)-pyridin-2-yl]sulfonyl}octahydropyrrolo[1,2-a]pyrazine], the IC50 turned out to be 380 nM.

With `O=S(=O)(c1cccc(C(F)(F)F)c1)N1CCN2C[C@H](Oc3nccc(C4CC4)n3)C[C@H]2C1` [Example 46, (7R,8aS)-7-[(4-cyclopropylpyrimidin-2-yl)oxy]-2-{[3-(trifluoromethyl)-phenyl]sulfonyl}octahydropyrrolo[1,2-a]pyrazine], the IC50 turned out to be 1230 nM.

Regarding `O=S(=O)(c1cccc(Cl)c1F)N1CCN2C[C@H](Oc3cnc(C4CC4)cn3)C[C@H]2C1` [Example 120, (7R,8aS)-2-[(3-chloro-2-fluorophenyl)sulfonyl]-7-[(5-cyclopropylpyrazin-2-yl)oxy]octahydropyrrolo[1,2-a]pyrazine], the IC50 stood at 720 nM.

Regarding `CC(=O)c1cccc(S(=O)(=O)N2CCN3C[C@H](Oc4cnc(C5CC5)cn4)C[C@H]3C2)c1` [Example 108, 1-(3-{[(7R,8aS)-7-[(5-cyclopropylpyrazin-2-yl)oxy]hexahydropyrrolo[1,2-a]-pyrazin-2(1H)-yl]sulfonyl}phenyl)ethanone], the IC50 was found to be 4360 nM.

In the case of `O=S(=O)(c1cccc(C(F)(F)F)c1)N1CCN2C[C@H](Oc3ccc(C4CC4)cn3)C[C@H]2C1` [Example 90, (7R,8aS)-7-[(5-cyclopropylpyridin-2-yl)oxy]-2-{[3-(trifluoromethyl)phenyl]-sulfonyl}octahydropyaolo[1,2-a]pyrazine], the IC50 was 720 nM.

`O=S(=O)(c1cccc(C(F)(F)F)c1)N1CCN2C[C@H](O)C[C@H]2C1` [Example 19, (7R,8aS)-2-{[3-(trifluoromethyl)phenyl]sulfonyl}octahydropyrrolo[1,2-a]-pyrazin-7-ol]: the IC50 is 1830 nM.

In the case of `O=C1C(Oc2ccc(C(F)(F)F)cn2)CC2CN(S(=O)(=O)c3cccc(C(F)(F)F)c3)CCN12` (stereo not shown) [Example 217, 2-{[3-(trifluoromethyl)phenyl]sulfonyl}-7-{[5-(trifluoromethyl)pyridin-2-yl]-oxy}hexahydropyrrolo[1,2-a]pyrazin-6(211)-one], the concentration for half-maximal inhibition (IC50) stood at 780 nM.

For `N#Cc1ccc(O[C@@H]2C[C@H]3CN(S(=O)(=O)c4cccc(C(F)(F)F)c4)CCN3C2)nc1` [Example 85, 6-{[(7R,8aS)-2-{[3-(trifluoromethyl)phenyl]sulfonyl}octahydropyrrolo[1,2-a]pyrazin-7-yl]oxy}nicotinonitrile], the IC50 was found to be 960 nM.

In the case of `CC(=O)c1ccc(S(=O)(=O)N2CCN3C[C@H](Oc4cnc(C5CC5)cn4)C[C@H]3C2)cc1` [Example 48, 1-(4-{[(7R,8aS)-7-[(5-cyclopropylpyrazin-2-yl)oxy]hexahydropyrrolo[1,2-a]-pyrazin-2(1H)-yl]sulfonyl}phenyl)ethanone], the half-maximal inhibitory concentration (IC50) is 9660 nM.

With `O=S(=O)(c1ccc(F)c(Cl)c1)N1CCN2C[C@H](Oc3cnc(C4CC4)cn3)C[C@H]2C1` [Example 161, (7R,8aS)-2-[(3-chloro-4-fluorophenyl)sulfonyl]-7-[(5-cyclopropylpyrazin-2-yl)oxy]octahydropyrrolo[1,2-a]pyrazine], the IC50 was determined as 1710 nM.

Take `O=C1C(Cc2cccc(F)c2)C[C@H]2CN(S(=O)(=O)c3cccc(C(F)(F)F)c3)CCN12` (stereo partly drawn) [Example 214, (8aS)-7-(3-fluorobenzyl)-2-{[3-(trifluoromethyl)phenyl]sulfonyl}-hexahydropyrrolo[1,2-a]pyrazin-6(2H)-one]: the 50% inhibitory concentration (IC50) was determined as 440 nM.

For `COc1ccc(S(=O)(=O)N2CCN3C[C@H](Oc4cnc(C5CC5)cn4)C[C@H]3C2)cc1` [Example 147, (7R,8aS)-7-[(5-cyclopropylpyrazin-2-yl)oxy]-2-[(4-methoxyphenyl)-sulfonyl]octahydropyrrolo[1,2-a]pyrazine], the half-maximal inhibitory concentration (IC50) turned out to be 6150 nM.

The record behind these values is patent publication US8648074B2, “Substituted octahydropyrrolo[1,2-a]pyrazine sulfonamides as calcium channel blockers” (AbbVie Inc., priority 2011, dated 2014).
